Experimental data: the supplement of paper PMC11876631
± gives the standard deviation of the averaged measurements. Laboratory Escherichia coli strains with one amino-acid change in an essential protein, pooled on minimal glucose agar with carbenicillin or gentamicin at twice the control MIC (plus kanamycin and chloramphenicol for the plasmids), 48 h. Fold change of barcode share against drug-free plates; higher = less susceptible. Active = above 20 in both replicates (the paper's putatively resistant). '<' = one read or none on drug, '>' = one read or none on a drug-free plate. Shares are relative, so most strains fall below 1 when a few take over. Listed are strains with at least 15 reads on both drug-free plates, and hits; most hits rest on fewer reference reads. Replicate rank correlation about 0.5. Edits are read from barcodes.

Biological target: Escherichia coli (laboratory strain)
Assay: barcode share on antibiotic plates over drug-free plates; higher = less susceptible
Experimental: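 A pool of E. coli strains, each edited to carry one amino-acid change in an essential protein, was grown for 48 h on minimal glucose agar with or without antibiotic; strain barcodes were sequenced; mean of two replicates.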

[1] = antibiotic: carbenicillin, 2× MIC (3.1 µg/mL)
[2] = antibiotic: gentamicin, 2× MIC (MIC 0.45 µg/mL)

Row | Protein | fold change of barcode share [1] | fold change of barcode share [2]
1 | nadE L43A (protein) MTLQQQIIKALGAKPQINAEEEIRRSVDFLKSYLQTYPFIKSAVLGISGGQDSTLAGKLCQMAINELRLETGNESLQFIAVRLPYGVQADEQDCQDAIAFIQPDRVLTVNIKGAVLASEQALREAGIELSDFVRGNEKARERMKAQYSIAGMTSGVVVGTDHAAEAITGFFTKYGDGGTDINPLYRLNKRQGKQLLAALACPEHLYKKAPTADLEDDRPSLPDEVALGVTYDNIDDYLEGKNVPQQVARTIENWYLKTEHKRRPPITVFDDFWKK | 2.12 ± 2.1 | < 0.00687
2 | nadE I251A (protein) MTLQQQIIKALGAKPQINAEEEIRRSVDFLKSYLQTYPFIKSLVLGISGGQDSTLAGKLCQMAINELRLETGNESLQFIAVRLPYGVQADEQDCQDAIAFIQPDRVLTVNIKGAVLASEQALREAGIELSDFVRGNEKARERMKAQYSIAGMTSGVVVGTDHAAEAITGFFTKYGDGGTDINPLYRLNKRQGKQLLAALACPEHLYKKAPTADLEDDRPSLPDEVALGVTYDNIDDYLEGKNVPQQVARTAENWYLKTEHKRRPPITVFDDFWKK | 0.257 ± 0.04 | < 0.0158
3 | nadE V157A (protein) MTLQQQIIKALGAKPQINAEEEIRRSVDFLKSYLQTYPFIKSLVLGISGGQDSTLAGKLCQMAINELRLETGNESLQFIAVRLPYGVQADEQDCQDAIAFIQPDRVLTVNIKGAVLASEQALREAGIELSDFVRGNEKARERMKAQYSIAGMTSGVAVGTDHAAEAITGFFTKYGDGGTDINPLYRLNKRQGKQLLAALACPEHLYKKAPTADLEDDRPSLPDEVALGVTYDNIDDYLEGKNVPQQVARTIENWYLKTEHKRRPPITVFDDFWKK | 0.248 ± 0.04 | < 0.00752
4 | nadE L195Q (protein) MTLQQQIIKALGAKPQINAEEEIRRSVDFLKSYLQTYPFIKSLVLGISGGQDSTLAGKLCQMAINELRLETGNESLQFIAVRLPYGVQADEQDCQDAIAFIQPDRVLTVNIKGAVLASEQALREAGIELSDFVRGNEKARERMKAQYSIAGMTSGVVVGTDHAAEAITGFFTKYGDGGTDINPLYRLNKRQGKQQLAALACPEHLYKKAPTADLEDDRPSLPDEVALGVTYDNIDDYLEGKNVPQQVARTIENWYLKTEHKRRPPITVFDDFWKK | 0.436 ± 0.23 | < 0.00604
5 | nadE L196A (protein) MTLQQQIIKALGAKPQINAEEEIRRSVDFLKSYLQTYPFIKSLVLGISGGQDSTLAGKLCQMAINELRLETGNESLQFIAVRLPYGVQADEQDCQDAIAFIQPDRVLTVNIKGAVLASEQALREAGIELSDFVRGNEKARERMKAQYSIAGMTSGVVVGTDHAAEAITGFFTKYGDGGTDINPLYRLNKRQGKQLAAALACPEHLYKKAPTADLEDDRPSLPDEVALGVTYDNIDDYLEGKNVPQQVARTIENWYLKTEHKRRPPITVFDDFWKK | 0.176 ± 0.077 | < 0.0119
6 | nadE F78Q (protein) MTLQQQIIKALGAKPQINAEEEIRRSVDFLKSYLQTYPFIKSLVLGISGGQDSTLAGKLCQMAINELRLETGNESLQQIAVRLPYGVQADEQDCQDAIAFIQPDRVLTVNIKGAVLASEQALREAGIELSDFVRGNEKARERMKAQYSIAGMTSGVVVGTDHAAEAITGFFTKYGDGGTDINPLYRLNKRQGKQLLAALACPEHLYKKAPTADLEDDRPSLPDEVALGVTYDNIDDYLEGKNVPQQVARTIENWYLKTEHKRRPPITVFDDFWKK | 0.2 ± 0.093 | < 0.0173
7 | nadE I79Q (protein) MTLQQQIIKALGAKPQINAEEEIRRSVDFLKSYLQTYPFIKSLVLGISGGQDSTLAGKLCQMAINELRLETGNESLQFQAVRLPYGVQADEQDCQDAIAFIQPDRVLTVNIKGAVLASEQALREAGIELSDFVRGNEKARERMKAQYSIAGMTSGVVVGTDHAAEAITGFFTKYGDGGTDINPLYRLNKRQGKQLLAALACPEHLYKKAPTADLEDDRPSLPDEVALGVTYDNIDDYLEGKNVPQQVARTIENWYLKTEHKRRPPITVFDDFWKK | 0.171 ± 0.043 | 0.0159 ± 0.0084
8 | nadD V202P (protein) MKSLQALFGGTFDPVHYGHLKPVETLANLIGLTRVTIIPNNVPPHRPQPEANSVQRKHMLELAIADKPLFTLDERELKRNAPSYTAQTLKEWRQEQGPDVPLAFIIGQDSLLTFPTWYEYETILDNAHLIVCRRPGYPLEMAQPQYQQWLEDHLTHNPEDLHLQPAGKIYLAETPWFNISATIIRERLQNGESCEDLLPEPPLTYINQQGLYR | 0.226 ± 0.079 | 0.00661 ± 0.0066
